Reference: PubChem BioAssay AID894 (National Center for Advancing Translational Sciences (NCATS), 2007)
The whole screen tested about 150,000 compounds, of which about 6,500 (4.3%) were called active. Inconclusive results, whose numbers are uncertain, are shown with a selection of clear calls. Calls come from the whole dose curve; as a rule, active = well fitted inhibition curve with a large enough effect (not every such curve was filed as active); inconclusive = small, poorly fitted or top-dose-only effect, or another doubt; inactive = no such curve, though single readings can be large or run the other way. No potency is given beside an inconclusive call; the fits are too rough.

The compounds below were run against 15-hydroxyprostaglandin dehydrogenase [NAD(+)] (Homo sapiens) (UniProt P15428) (assay: qHTS Assay for Inhibitors of HPGD (15-Hydroxyprostaglandin Dehydrogenase)). Conditions: purified HPGD, NADH fluorescence kinetic, PGE2 substrate; activity change, negative = inhibition: stronger effect = lower value.
Method in brief: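 20 nM HPGD preincubated 15 min at room temperature with compound in 50 mM Tris-HCl pH 8, 0.01% Tween 20. Started with 1 mM NAD+ and 30 uM prostaglandin E2; NADH fluorescence (360/450 nm) read 5 times over 30-s intervals, last minus first.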
% is set by controls: 0 for no effect and ±100 for the full control effect; potency is the fitted concentration of half-maximal effect; tags give direction and shape of the fitted curve.

UniProt P15428, sequence (P15428 whole entry, looked up): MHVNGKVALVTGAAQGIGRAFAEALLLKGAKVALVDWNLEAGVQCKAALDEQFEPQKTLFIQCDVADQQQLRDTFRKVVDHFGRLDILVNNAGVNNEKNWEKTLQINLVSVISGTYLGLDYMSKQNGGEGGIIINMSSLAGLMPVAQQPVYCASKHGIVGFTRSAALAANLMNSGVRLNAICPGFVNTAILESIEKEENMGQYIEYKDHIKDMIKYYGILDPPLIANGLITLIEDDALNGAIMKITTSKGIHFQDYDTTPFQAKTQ

Compound | Potency | activity change, negative = inhibition
COC(=O)Cc1csc(/N=C/c2c(O)n(-c3cccc(C(F)(F)F)c3)c(=O)c3ccccc23)n1 | inconclusive [inhibitor, partial curve] | 
O=[N+]([O-])c1ccccc1CNc1ccc(F)c(Cl)c1 |  | inactive: -5.36%
O=C(CSc1cccc2cccc(Cl)c12)NCc1cccs1 | active: 10 µM | 
COc1ccc(C)cc1NC(=O)CSc1nnc(-c2cc3cccc(OC)c3o2)n1N | inconclusive [inhibitor, single point] | 
Cc1ccc(S(=O)(=O)NCCC(=O)O)cc1 |  | inactive: -2.18%
CCN(CC)CCCC(C)n1c(-c2ccccc2)nc2c(NCCO)nc(C)nc21 (centres undefined) | inconclusive [inhibitor, partial curve] | 
Cc1ccc(-n2c(=O)c(C#N)cc3c(=O)n4ccccc4nc32)cc1 | inconclusive [inhibitor, partial curve] | 
CCCCn1c(SCC(=O)N2CCC(C)CC2)nc2cc(S(N)(=O)=O)ccc21 | active: 28.2 µM | 
Cc1ccc(-n2ncc(C(=O)N3CCc4ccccc4C3)c2NC(=O)c2ccco2)cc1C | inconclusive [inhibitor, partial curve] | 
CCSc1nnc(NC(=O)CSc2nc(CC)nc3c2c(=O)n(C)c(=O)n3C)s1 | inconclusive [inhibitor, single point] | 
O=[N+]([O-])c1ccc(N2CCCCCC2)c([N+](=O)[O-])c1 |  | inactive: -13.7%
Cc1c(C(=O)c2ccc(Cl)cc2Cl)cnc2cc3c(cc12)OCO3 | inconclusive [inhibitor, single point] | 
O=C(c1ccccc1)[C@H](Nc1ccc2ccccc2c1)c1ccccc1 |  | inactive: -12.9%
Cn1c(N)c(C#N)c2c(c1=S)CSC(C)(C)C2 |  | inactive: -12.3%
Cc1nn2c(c1-c1ccccc1)NC1=C(C(=O)CCC1)C2c1ccccc1 (centres undefined) | inconclusive [inhibitor, partial curve] | 
C=CCSC1=C(C#N)C(c2cc(Br)c(O)c(OC)c2)CC(=O)N1 (centres undefined) | active: 17.8 µM | 
O=C(CN1CCOCC1)N/N=C/c1cc2ccccc2nc1Cl | inconclusive [inhibitor, single point] | 
CC(=O)C1=C(C)NC(SCc2cccc([N+](=O)[O-])c2)=C(C#N)C1c1ccco1 (centres undefined) |  | inactive: -5.71%
CCCCNc1ccccc1C(=O)OCC(=O)Nc1ccc(S(N)(=O)=O)cc1 | inconclusive [inhibitor, partial curve] | 
CC(C)CC(C(=O)OCC(=O)Nc1ncc(Cl)cc1Cl)N1C(=O)c2ccccc2C1=O (centres undefined) |  | inactive: -27.8%
COc1ccc(C(=O)c2cc(C(C)=O)c(Nc3ccccc3)s2)cc1 | inconclusive [inhibitor, single point] | 
CCCc1[nH]nc2c1C(c1ccncc1)C(C#N)=C(N)O2 (centres undefined) |  | inactive: -22.9%

Compound | Potency | activity change, negative = inhibition
Cc1c(O)ccc2c(CN3CCN(CCO)CC3)cc(=O)oc12 | inconclusive [inhibitor, partial curve] | 
CC(C)(C)c1ccc(CN2N=Nc3ccccc3S2(=O)=O)cc1 | inconclusive [inhibitor, partial curve] | 
C[C@@H]1Nc2ccc(Cl)cc2S(=O)(=O)N1 | inconclusive [inhibitor, partial curve, poor fit] | 
O=C(COC(=O)c1cc(-c2ccco2)nc2ccccc12)NCc1ccccc1 | inconclusive [inhibitor, partial curve] | 
O=C(/C=C/c1cccc([N+](=O)[O-])c1)NCCSCc1ccco1 | active: 25.1 µM | 
Cc1ccc(C)n1-c1ccc(C(=O)N2CCOCC2)cc1 | inconclusive [inhibitor, single point] | 
COc1ccc(NC(=O)C2C3C=CC(C3)C2C(=O)NCc2ccco2)c(OC)c1 (centres undefined) | active: 25.1 µM | 
COc1ccc2cc3cc(C(=O)Nc4ccc5c(c4)OCCO5)oc3nc2c1 |  | inactive: -6.39%
CCOC(=O)c1cnc2ccc(OC)cc2c1NCc1ccccc1 | inconclusive [inhibitor, partial curve] | 
COc1ccc(NC(=O)COc2ccc(/C=N/NC(=O)c3cccnc3)cc2OC)cc1 | inconclusive [inhibitor, single point] | 
CN(C)CCCNC(=O)c1ccc(Cc2nc3ccccc3[nH]2)cc1 |  | inactive: -9.9%
Cc1ccc(CN2CCc3c(OCC(=O)Nc4cc(C)ccc4C)cccc3C2=O)cc1 |  | inactive: -14.2%
Cn1c(SCC(=O)c2ccc3c(c2)OCO3)nnc1-c1ccccn1 |  | inactive: -9.38%
Oc1ccc(/C=N/NC2=NCCCCC2)cc1 | inconclusive [inhibitor, partial curve] | 
CCOC(=O)N1CCN(C(=O)c2cn(CCOC)c(=O)c3c2c2ccccc2n3C)CC1 | inconclusive [inhibitor, partial curve] | 
CCN1CCCC1Cn1c(-c2ccccc2)nc2c(N3CCOCC3)nc(C)nc21 (centres undefined) | inconclusive [inhibitor, partial curve] | 
CCCc1nc2ccc(NC(=O)c3cccs3)cc2c(=O)n1Cc1ccccc1Cl | inconclusive [inhibitor, partial curve] | 
CCOc1cc(NC(=O)c2ccco2)c(OCC)cc1NC(=O)Cc1ccc(OC)c(OC)c1 | inconclusive [inhibitor, partial curve] | 
CCOC(=O)N/N=C/c1c(C)nn(-c2ccccc2Cl)c1Cl | inconclusive [inhibitor, partial curve] | 
Cc1nc2c(C(=O)NCCc3ccccc3Cl)c[nH]n2c(=O)c1Cl | inconclusive [inhibitor, partial curve] | 
Cc1nc(-c2cccc3ccccc23)ccc1C(=O)O | inconclusive [inhibitor, partial curve] | 
CCOC(=O)c1cc2ccc(OC)cc2oc1=O | inconclusive [inhibitor, partial curve] | 
